Measured values published in the RNAGym collection of RNA variant scans (doi:10.7554/elife.90254).
Read counts are not given, so values of variants with three or more changes are uncertain.

B1: OR4K15 (parent)
chain: GUUAACGGUCAUAGGCCAUGGAAACUAGGAGCACCAUUUCGCUGCCAGUGAAGAAAUGAACAAAGAAAAUCUGGGCCAGGCAGGCAUCAAAAGAAAUAGUCUUGCGCUCAACCAGAAAGUCUGUAAUCAUUUUAAGGGUA

Variants of: B1
Test: self-cleavage, relative activity (ratio to wild type); higher = more cleavage; in vitro, sequencing; the parent is a self-cleaving ribozyme

Q: With GAUAACGGUCGUAGGCCAUGGAAACUAGGAGCCCCAUUUCGCUGCCAGUGAAGAAAUGAACAAAGAAAAUCUGGGCCAGGCAGGCAUCAAAAGAAAUAGUCUUGCGCUCAACCAGAAAGUCUGUAAUCAUUUUAAGGGUA [U2A A11G A33C] as the variant, how does the self-cleavage read?
A: 1.21

Q: With AUUAACGGUCAUAGGCCAUGGAAACUAGGAGCACCAUAUCGCUGCCAGUGAAGGGAUGAACAAAGAAAAUCUGGGCCAGGCAGGCAUCAAAAGAAAUAGUCCUGCGCUCAACCAGAAAGCCUGUAAUCAUUUUAAGGGUA [G1A U38A A54G A55G U102C U120C] as the variant, how does the self-cleavage read?
A: 0.89

Q: Which self-cleavage does the source give for AUUAACGGUCAUAGGCCAUGGGAACUAGGAGCACCAUUUCGCUGCCAGUGAAGAAAUGUACAAAGAAAAUCUGGGCCAGGCAGGCAUCAAAAGAGAUAGUCUUGCGCACAACCAGAAAGACUGUAAUCAUUUUAAGGGUA [G1A A22G A59U A95G U108A U120A] here?
A: 0.03

Q: With AUUAACGGUCAUAGGCCAUGGAAACUAGGAGCACCAUUUCGCUGCCAGUGGAGAAAUGAAUAAAGAAAAUCUGGGCCAGGCAGGCACCAAAAGAAAUAGUCUUGCGCUCAACCAGAAAGCCUGUAAUCAUUUUAAGGGUA [G1A A51G C61U U87C U120C] as the variant, how does the self-cleavage read?
A: 1.28

Q: For AUUAACGGUCAUAGGCCAUGGGAACUAGGAGCACCAUUUCGCAGCCGGUGAAGAAAUGAACAAAGAAAAUCUGGGCCCGGCAGGCAUCAAAAGAAAUAGUCUUGCACUCAACCAGAAAGUCUGUAAUCAUUUUAAGGGUA [G1A A22G U43A A47G A78C G106A], which self-cleavage is on record?
A: 0.03

Q: With UUUAACGGUCAUAGGCCAUGGAAACUAGGAGCACCAUUUCGCUGCCAGUAAAGAAAUGAACAAAGAAAAUCUGGGCCAGGCAGGCAUCAAAAGAAAUAGUCUUGCGUUCAACCAGAAAGUCUGUAAUCAUUUUAAGGGUA [G1U G50A C107U] as the variant, how does the self-cleavage read?
A: 0.02

Q: With AUUAACGGUCAUAGGCCAUGGGAGCUAGGAGCACCAUUUCGCUGCCAGUGAAGAAAUGAACAAAGAAAAUCUGGGCCAGGCAGGCAUCAAAAGAAAUAGUCUUGCGCUCAACCAGAAAGUCUGUAAUCAUUUUAAGGGUA [G1A A22G A24G] as the variant, how does the self-cleavage read?
A: 0.85

Q: For UUUAACGGUCAUAGGCCAUGGAAACUAGGAGCACCACUUCGCUGCCAGUGAAGAAAUGAACAAAGAAAGUCUGGGCCAGGCAGGCAUCAAAAGAAAUAGCCUUGCGCUCAAACAGAAAGUCUGUAAUCAUUUUAAGGAUA [G1U U37C A69G U100C C112A G138A], which self-cleavage is on record?
A: 0.01

Q: With UAUAACGGUCAUAGGCCAUGGAAACUAGGAGCACCAUUUCGCUGCCAGUGAAGAAAUGGACAAAGAAAAUCAGGGCCAGGCAGGCAUCAAAAGAAAUAGUCUUGCGCUCAACCAGAAAGUCUGUAAACAUUUUAAGGGUA [G1U U2A A59G U72A U127A] as the variant, how does the self-cleavage read?
A: 0.47

Q: Which self-cleavage does the source give for UUUAACGGUCAUAGGCCAUGGAAACUAGGAGCACCAUUUCGCUGCCAGUGAGGAAAUGAACAAAGAAAAUCUGGGCCAGGCAGGCACCAAAAGAAAUAGUCUUGCGCUCAGCCAGAAAGUCUGUGAUCAUUUUAAGGGUA [G1U A52G U87C A111G A125G] here?
A: 0

Q: With GAUAGCGGUCAUAGGCCAUGGAAACUAGGAGCACCAUUUCGCUGCCAGUGAAGGAAUGAACAAAGAAAAUCUGGGCCAGGCAGGCAUCAAAAGAAAUAGUCUUGCGCUCGACCAGAAAGUCUGUAAUCACUUUAAGGGUA [U2A A5G A54G A110G U130C] as the variant, how does the self-cleavage read?
A: 0.22

Q: Which self-cleavage does the source give for UUUAACGGUCAUAGGCCAUGGAAACUAGUAGCACCAUUUCGCUGCCAGUGAAGAAAUGAACAAAGAAAAUCUGGGCCAGGCAGGCAUCAAAAGAAAUAGUCCUGCGCUCAACCAGAAAGUCUGUAAUCAUUUUAAGGGUA [G1U G29U U102C] here?
A: 1.86

Q: With GAUAACGGUCAUAGGCCUUGGAAACUAGGAGCACCAUUUCGCUGCCAGUGAAGAAAUGAACAAAGAAAGUCUGGGCCAGGCAGGCAUCAAAAGAAAUAGUCUUGCGCUCAACCAGAAAGUCUGUAAUCAUUUUAAGGGUA [U2A A18U A69G] as the variant, how does the self-cleavage read?
A: 1.31

Q: With AUUAACGGUCAUAGGCCAUGGAAACUAGGAGCACCAUUUCGCUGCCAGUGAAGGAAUGGACAAAGAAAAUCUGGGCCCGGCAGGCAUCAAAAGAAAUAGUCUUGCGCUCAACCAGAAAGUCUGUAAUCAUUUUAAGGGUA [G1A A54G A59G A78C] as the variant, how does the self-cleavage read?
A: 0.49

Q: Which self-cleavage does the source give for AUUAACGGUCAUAGGCCAUGGAUACUAGGAGCACCAUUUCGCUGCCAGUGAAGAAAUGAACAAAGAGAAUCUGGGCCAGGCAGGCAUCAAAAGAAAUAGUCUUGCGCUCAACCAGAAAGUCUGUAAUCAUUUUAAGGGUA [G1A A23U A67G] here?
A: 2.4

Q: With GAUAACGGUCAUUGGCCAUGGAAACUAGGAGCACCAUUUCGCUGCCAGUGAAGAAAUGAACAAAGAAAAUCUGGGCCAGGCAGGCAUCAAAAGAAAUAGUCUUGCGCUCAAUCAGAAAGUCUGUAAUCAUUCUAAGGGUA [U2A A13U C112U U132C] as the variant, how does the self-cleavage read?
A: 0.02

Q: Which self-cleavage does the source give for AUUAACGGUCAUAGGCCAUGGAAACUAGGAGCACCAUCUCGCUGCCAGUGAAGAAAUGAACAAAGAAAAACUGGGCCAGGCAGGCAUCAAAAGAAAUAGUCUUGCGCUCAACCAGAGAGUCUGUAAUCAUUUUAAGGGUA [G1A U38C U70A A117G] here?
A: 0.55

Q: Which self-cleavage does the source give for AUUAACGGUCAUAGGCCAUGGAAACUAGGAGCACCUUUUCGCUGCCAGUGAAGAAAUGAACAAAGAAAAUCUGGGCCAGGCAGGCAUCAGAAGAAAUAGUCUUGCGCUCAACCAGAAAGUCUGUGAUCAUUUUAAGGGUU [G1A A36U A90G A125G A140U] here?
A: 0.11

Q: For AUUAACGGUCAUAGGCCAUGGAAACUAGGAGCACCAUUUCGCUGCCAGUGAAGAAAUGAACAAAGAAAAUCUGGGCCAGGCAGGCUUCAAAAGAAAUAGUCUUGCGCUCAGCCAGGAAGUCCGUAAUCAUUUUGAGGGUU [G1A A86U A111G A116G U122C A134G A140U], which self-cleavage is on record?
A: 0.01

Q: With UUUAACGGUCAUAGGCCAUGGAAACUAGGAGCACCAUAUCGCUGCCAGCGAAGAGACGAACAAAGAAAAUCUGGGCCAGGCAGGCGUCAAAAGAAAUAGUCUUGCGCUCAACCAGAAAGUCUGUAAUCAUUUUAAGGGUA [G1U U38A U49C A55G U57C A86G] as the variant, how does the self-cleavage read?
A: 0.87
